In all, about 48,000 compounds went through this assay and about 120 (0.25%) were called active. Not shown: some 4% with an inconclusive outcome. Calls follow the shape of the dose curve; as a rule, active = well fitted activation curve with a large enough effect; inconclusive = small, poorly fitted or top-dose-only effect, or another doubt; inactive = no such curve, though single readings can be large or run the other way. This is one part of the list.

These results are taken from PubChem BioAssay AID1508624 (National Center for Advancing Translational Sciences (NCATS), 2021).

This assay is described as follows: Primary qHTS for Identification of Small Molecule Activators of Huntingtin-Antisense Promoter Activity. Also: nearly all actives have a fitted effect of over 55% in size. The settings on record: HEK293 HTT-AS promoter firefly luciferase reporter, 24 h; series mostly up to 57.5 µM; activity change, positive = activation: at the top concentration. In outline: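 Quantitative HTS used concentration series of up to 57.5 uM final on HEK293 luciferase reporter cells, 24 h at 37 degrees C. Readout was Dual-Glo firefly luminescence.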
With `CCN(CCCNC(=O)c1cc2c(=O)n(C)c3ccccc3c2s1)Cc1ccccc1`, the “activity change, positive = activation” value was inactive: 0.534%.

As to `Cc1cccc(NC(=O)c2ccc(N(Cc3ccccc3)S(C)(=O)=O)cc2)c1`, the “activity change, positive = activation” value is inactive: 13.9%.

For `COc1ccc(CNC(=O)c2cnc3sc(N4CCCC4)nn3c2=O)cc1OC`, the “activity change, positive = activation” value is inactive: -26.7%.

Take `Cc1ccc2c(c1)C(c1ccc(F)cc1)N(C(=O)COc1ccc(Cl)cc1Cl)CC(=O)N2` (configuration not stated): the “activity change, positive = activation” value was inactive: -29.4%.

In the case of `CN1CCC[C@H]1CCO[C@](C)(c1ccccc1)c1ccc(Cl)cc1`, the “activity change, positive = activation” value is inactive: -16.5%.

As to `Cc1cc2ncn(CCCCOc3ccccc3)c2cc1C`, the “activity change, positive = activation” value is inactive: -15.8%.

Regarding `CSc1cccc(Nc2nc3c(S(=O)(=O)c4ccccc4)nnn3c3ccc(Cl)cc23)c1`, the “activity change, positive = activation” value was inactive: 4.16%.

In the case of `O=C(Cn1ncc2ccc(Cl)cc21)NCc1ccc(F)cc1`, the “activity change, positive = activation” value was inactive: 6.61%.

For the compound `Cc1ccc(C)c(NC(=O)CSc2ncc(S(=O)(=O)c3ccc(C)c(Cl)c3)c(=O)[nH]2)c1`, the “activity change, positive = activation” value was inactive: -4.52%.

On to `OCc1c[nH]c2ccccc12`, for which the “activity change, positive = activation” value is inactive: -8.82% [at 116 µM, percent change from vehicle, -100% = no light].

Regarding `O=C(c1ccc2c(c1)N(Cc1ccc(F)cc1)C(=O)c1ccccc1S2=O)N1CCC(Cc2ccccc2)CC1` (configuration not stated), the “activity change, positive = activation” value was inactive: -35%.

As to `COCCNCCCn1c(C(=O)CF)c(-c2ccc(C)cc2)c2c(N)ncnc21`, the “activity change, positive = activation” value is inactive: -11.1%.

`COc1ccc(Cn2c(SCc3ccc(C(=O)NC(C)C)cc3)nc3cccnc32)cc1`: the “activity change, positive = activation” value is inactive: -11.3%.

On to `CC1(C)CC(O)CC(C)(C)N1[O]`, for which the “activity change, positive = activation” value was inactive: -7.53%.

Take `CCc1ccc(CNC(=O)c2ccc(NC(=O)N3CCCCc4ccccc43)cc2)cc1`: the “activity change, positive = activation” value is inactive: -17.8%.

As for `COc1ccccc1NC(=O)c1cccc(S(=O)(=O)N2CCCCCC2)c1`, the “activity change, positive = activation” value was inactive: -21.2%.

Consider `Cc1c(Cl)cccc1NC(=O)Nc1nnc(N2CCCCCC2)s1`, for which the “activity change, positive = activation” value was inactive: 0%.

For the compound `CC(=O)NCc1c(I)c(NC(C)=O)c(I)c(C(=O)O)c1I`, the “activity change, positive = activation” value was inactive: 0.281%.

As for `COc1ccc(N2CCN(C(=O)c3cn(CC(C)C)c(=O)c4c3c3ccccc3n4C)CC2)cc1`, the “activity change, positive = activation” value is inactive: -13.3%.

For `CC(C)(C)C1CCc2c(sc(NC(=O)Cn3nnc(-c4ccccc4F)n3)c2C#N)C1` (configuration not stated), the “activity change, positive = activation” value was inactive: 8.06%.

Consider `C[C@H](NCc1ccc2c(c1)nc(NC(=O)c1ccc(-c3cn[nH]c3)s1)n2CCc1ccccc1)C(C)(C)C`, for which the “activity change, positive = activation” value is inactive: -42.8%.

On to `O=C(Cn1c(=O)c2cccn2c2ccccc21)Nc1cc(F)ccc1F`, for which the “activity change, positive = activation” value is inactive: -14.4%.

Turning to `CCOc1ccc(N(C(=O)Cn2nnc3ccccc32)C(C(=O)NCc2ccccc2)c2ccc(OC)cc2)cc1` (configuration not stated), the “activity change, positive = activation” value is inactive: -9.34%.

Consider `CCOC(=O)c1cc(-c2ccccc2)n(-c2cccc(C(=O)Nc3ccc(OC)cc3)c2)c1C`, for which the “activity change, positive = activation” value was inactive: -31.6%.

Consider `COc1ccc(-c2[nH]ncc2C(=O)NCc2ccccc2C)cc1`, for which the “activity change, positive = activation” value was inactive: -10.4%.

Take `CC(=O)N1CCCc2cc(S(=O)(=O)N3CCC(C(=O)NCc4ccc(C)cc4)CC3)ccc21`: the “activity change, positive = activation” value is inactive: -14.8%.

On to `COC(=O)c1ccccc1NC(=O)Cn1c(=O)n(-c2cccc(OC)c2)c(=O)c2c(C)c(C(=O)N(C)C)sc21`, for which the “activity change, positive = activation” value is inactive: 1.81%.

For `Cc1onc(-c2ccccc2Cl)c1C(=O)Oc1cc(F)cc(F)c1`, the “activity change, positive = activation” value is inactive: -11.5%.

Take `CCC(C(=O)NCCc1ccc(SC)cc1)n1nc(C)c2sc3ccccc3c2c1=O` (configuration not stated): the “activity change, positive = activation” value is inactive: -25.4%.

For the compound `Cc1ccc(CCNC(=O)Cn2nc(-c3ccc(C)cc3)ccc2=O)cc1`, the “activity change, positive = activation” value is inactive: -17.9%.

With `CCN(CC)CCNC(=O)c1cn(CC)c2ccc(S(=O)(=O)N3CCOCC3)cc2c1=O`, the “activity change, positive = activation” value was inactive: -4.78%.

Take `CC(=O)Nc1cccc(NC(=O)C(=O)NCCc2sc(-c3ccccc3)nc2C)c1`: the “activity change, positive = activation” value was inactive: -10.5%.

In the case of `COc1ccc(OCC(=O)OCc2cc(=O)n3nc(C4CCCCC4)sc3n2)cc1`, the “activity change, positive = activation” value is inactive: 6.43%.

As to `O=C(Cn1cc(S(=O)(=O)Cc2cccc(Cl)c2)c2ccccc21)NCCc1ccccc1`, the “activity change, positive = activation” value was inactive: -12.8%.

Take `Clc1cccc(-n2ncc3c(N4CCCCC4)ncnc32)c1`: the “activity change, positive = activation” value was inactive: -50%.

For the compound `Cc1ccc(NC(=O)/C(C#N)=C/c2ccc(C(C)C)cc2)cc1C`, the “activity change, positive = activation” value is inactive: -10.8%.

As for `CCN(c1cccc(C)c1)S(=O)(=O)c1ccc2[nH]cc(C(=O)NCCCOC)c(=O)c2c1`, the “activity change, positive = activation” value is inactive: -28.8%.

With `CC(=O)Nc1nonc1-c1nnc(SCC(=O)N(C)c2ccccc2)n1C`, the “activity change, positive = activation” value is inactive: -19.2%.

`COc1ccc(CNC(=O)C(=O)Nc2ccc(OC)cc2OC)cc1`: the “activity change, positive = activation” value is inactive: 0.343%.

Take `Cc1nnc(C(C)C)n1C1C[C@H]2CC[C@@H](C1)N2CC[C@H](NC(=O)C1CCC(F)(F)CC1)c1ccccc1` (some centres not stated): the “activity change, positive = activation” value was inactive: -7.17%.

On to `CCOC(=O)c1cnc2c(C)c(Cl)ccc2c1NCCc1ccccc1`, for which the “activity change, positive = activation” value is inactive: -25.3%.

Regarding `CCC1CN(C(=O)N2CCC(C(=O)NCc3cccc(C)c3)CC2)c2ccccc2O1` (configuration not stated), the “activity change, positive = activation” value is inactive: -32.4%.

As for `O=C(Cn1c(=O)nc(-c2ccccc2F)c2cc(Cl)ccc21)N1CCN(c2ccccc2F)CC1`, the “activity change, positive = activation” value is inactive: -6.27%.

Regarding `CCCCC(CC)CNC(=O)CN1C(=O)CSc2ccc(S(=O)(=O)N3CCOCC3)cc21` (configuration not stated), the “activity change, positive = activation” value was inactive: -16.2%.

Regarding `CCOc1ccccc1N(CC)C(=O)c1cc2c(=O)[nH]c3ccc(C)cc3c2s1`, the “activity change, positive = activation” value was inactive: -80%.

On to `COC(=O)c1scc(-c2ccc(C)cc2)c1S(=O)(=O)Nc1cc(OC)c(OC)c(OC)c1`, for which the “activity change, positive = activation” value is inactive: -3.4%.

Consider `COc1ccc(CNC(=O)c2c3c(nc4ccccc24)C(=O)N(C2CCCCC2)C3)c(OC)c1`, for which the “activity change, positive = activation” value was inactive: -21.7%.

Take `CC(=O)c1ccc(NC(=O)c2cc(S(=O)(=O)N3CCCCCC3)cn2C)cc1`: the “activity change, positive = activation” value was inactive: -13.1%.

Consider `Cc1ccc(NC(=O)CCCc2nnc3n(C)c(=O)c4sccc4n23)cc1F`, for which the “activity change, positive = activation” value is inactive: -13%.

Consider `COc1ccc(-c2nc3c(c(SCC(=O)Nc4ccccc4F)n2)Cc2cc(C)ccc2O3)cc1`, for which the “activity change, positive = activation” value was inactive: 15.3%.

`CC(O)Cn1cnc2c1c(=O)n(C)c(=O)n2C` (configuration not stated): the “activity change, positive = activation” value was inactive: -6.89%.

Regarding `NC(=O)C1(N2CCCCC2)CCN(C(=O)Nc2ccc(F)cc2)CC1`, the “activity change, positive = activation” value was inactive: 1.65%.

For `CCc1ccccc1NC(=O)CN1C(=O)c2ccccc2Sc2ncccc21`, the “activity change, positive = activation” value was inactive: -25.9%.

In the case of `O=C(CNC(=O)c1ccccc1)OCc1cc(=O)n2ccsc2n1`, the “activity change, positive = activation” value is inactive: -2.73%.

As to `Cc1ccc(C)c(N2CCN(C(=O)C3CCCN(Cc4nc(-c5cccc(Cl)c5)oc4C)C3)CC2)c1` (configuration not stated), the “activity change, positive = activation” value is inactive: -7.24%.

Regarding `CCCn1cc(S(=O)(=O)c2ccc(CC)cc2)c(=O)c2cc(F)c(N(CC)CC)cc21`, the “activity change, positive = activation” value was inactive: -6.57%.

As to `CCOc1cccc(NC(=O)CSc2ncc(-c3ccccc3)[nH]2)c1`, the “activity change, positive = activation” value is inactive: 19.8%.

As to `CCOc1ccc(CNC(=O)c2cc(=O)[nH]c3ccc(S(=O)(=O)N4CCCC4)cc23)cc1`, the “activity change, positive = activation” value is inactive: -8.43%.

With `COc1ccc(Cl)cc1CNCCSc1nnnn1C`, the “activity change, positive = activation” value is inactive: -6.1%.

Regarding `CCOc1cccc2sc(N3CCN(C(=O)C4CC4)CC3)nc12`, the “activity change, positive = activation” value is inactive: 8.95%.

With `Cc1cccc(N2CCN(C(=O)c3ccc4c(c3)N(Cc3cccc(Cl)c3)C(=O)c3ccccc3S4=O)CC2C)c1` (configuration not stated), the “activity change, positive = activation” value is inactive: -24.3%.

For the compound `Cc1cc(C)cc(NC(=O)CCCn2c3ccccc3c(=O)c3ccccc32)c1`, the activity change, positive = activation is inactive: -1.96% [at 11.5 µM, percent change from vehicle, -100% = no light].
